Whole data set: some 33,000 sequences, median “E-score (-0.5 to 0.5)” near -0.035, cut for the highest 2% near 0.35. This is one part of the list.

From the supplement of paper PMC3334620 come the findings set out here.

The test addresses T1, Pdr3 (UniProt P33200).
T1 sequence: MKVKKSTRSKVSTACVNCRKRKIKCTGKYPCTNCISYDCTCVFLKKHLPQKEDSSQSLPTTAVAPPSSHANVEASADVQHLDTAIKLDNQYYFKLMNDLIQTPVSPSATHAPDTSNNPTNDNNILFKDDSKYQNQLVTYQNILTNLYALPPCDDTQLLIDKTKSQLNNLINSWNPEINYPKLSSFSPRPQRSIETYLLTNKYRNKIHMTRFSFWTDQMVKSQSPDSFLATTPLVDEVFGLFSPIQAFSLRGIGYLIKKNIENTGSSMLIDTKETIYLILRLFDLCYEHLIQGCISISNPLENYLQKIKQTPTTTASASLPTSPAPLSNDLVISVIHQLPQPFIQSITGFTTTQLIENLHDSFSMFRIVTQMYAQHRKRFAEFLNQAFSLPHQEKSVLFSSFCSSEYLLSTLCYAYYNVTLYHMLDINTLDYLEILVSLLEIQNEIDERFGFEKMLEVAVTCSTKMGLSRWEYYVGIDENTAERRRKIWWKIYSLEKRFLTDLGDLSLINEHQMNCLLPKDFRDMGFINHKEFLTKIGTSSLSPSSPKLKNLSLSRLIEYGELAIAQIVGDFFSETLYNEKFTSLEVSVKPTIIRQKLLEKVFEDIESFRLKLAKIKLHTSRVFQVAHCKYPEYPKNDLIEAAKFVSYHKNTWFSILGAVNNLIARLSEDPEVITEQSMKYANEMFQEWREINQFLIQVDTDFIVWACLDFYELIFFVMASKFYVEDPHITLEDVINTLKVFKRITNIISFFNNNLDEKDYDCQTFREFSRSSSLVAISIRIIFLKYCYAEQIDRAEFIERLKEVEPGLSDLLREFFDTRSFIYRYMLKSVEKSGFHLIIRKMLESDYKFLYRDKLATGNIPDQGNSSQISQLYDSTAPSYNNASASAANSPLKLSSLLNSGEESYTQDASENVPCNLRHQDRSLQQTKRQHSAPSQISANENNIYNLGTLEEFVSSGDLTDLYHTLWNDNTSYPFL
Nature of the test: PBM E-score (8-mer binding enrichment) (E-score (-0.5 to 0.5)); higher = stronger / more preferred TF binding; most listed sequences are background and not binding sites. The settings on record: protein concentration: 200 nM; construct: GST-full length. A digest of the protocol:
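Using PURExpress in vitro transcription/translation, GST-tagged yeast transcription factors were made in full-length or DNA-binding-domain form. These were applied at about 100-200 nM to double-stranded universal all-10-mer Agilent arrays, and bound protein was detected with fluorescent anti-GST. Scans were normalised with masliner before the Universal PBM Analysis Suite assigned E-scores to ungapped eight-base words pooled with their reverse complements.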
In the case of ATAAATGG, the “PBM E-score” value is -0.0765.
Turning to CGGGATTA, the “PBM E-score” value came out at 0.404.
As to ACATTTAT, the “PBM E-score” value is -0.248.
With GCTCTTTA, the “PBM E-score” value stood at 0.0466.
The same measure for AAAGGTCG: -0.167; for CTTACGTC: -0.169; for TCATTAAA: 0.179.
Take TCTTAAAA: the “PBM E-score” value is -0.203.
To CTTAGTAA belongs -0.0875; to GTTATGGA, -0.00256.
For ACTGTAGG, the “PBM E-score” value was determined as 0.0131.
As for ACGAAGGA, the “PBM E-score” value was -0.0865.
For the sequence ACTCTACA, the “PBM E-score” value is -0.229.
Turning to AGCACGCT, the “PBM E-score” value was -0.243.
To CACTCCGA belongs 0.102; to TCCATGCA, 0.162.
Regarding AGTGCTTG, the “PBM E-score” value is -0.0454.
The same measure for CGAATGTC: 0.0506; for ATTTGCCG: 0.192.
Regarding CTCTCCTA, the “PBM E-score” value is -0.146.
As to AACATACG, the “PBM E-score” value came out at 0.103.
The same measure for AATGCCCG: 0.166.
To AAGCACCA belongs -0.219.
The same measure for ACCAATAG: -0.165.
On to CCTCTGCC, for which the “PBM E-score” value is -0.208.
To GGACGCGA belongs 0.11; to AGCTGTAT, -0.135.
The same measure for ACCTTACC: 0.0407.
To TAGCAACA belongs -0.0337; to CCGCTAGC, 0.0214.
Turning to CGAGTTTC, the “PBM E-score” value was found to be 0.0626.
Turning to ACGGCGTG, the “PBM E-score” value is 0.123.
For the sequence AGTGGTTG, the “PBM E-score” value was -0.00222.
On to GAAGGACC, for which the “PBM E-score” value is 0.0543.
The same measure for GAATAGCC: 0.0215; for AACAGCGA: -0.127; for ATGAACAA: -0.0432.
The same measure for AATAGGCA: 0.0167.
Consider GAGGCTAC, for which the “PBM E-score” value was -0.163.
Turning to CTTGACAA, the “PBM E-score” value was -0.0603.
For the sequence GAGGCGAA, the “PBM E-score” value came out at 0.0545.
For CGAGGGTC, the “PBM E-score” value is -0.0181.
To ATGTGGGA belongs 0.0287; to AATTTGCG, 0.0706.
The same measure for GCTGTACA: -0.21.
For GAACATTC, the “PBM E-score” value was 0.156.
The same measure for CACTGGAA: -0.107.
With GACAAGCA, the “PBM E-score” value is -0.145.
With ATTCTTTC, the “PBM E-score” value came out at 0.0556.
To GAGCGAGA belongs 0.147.
To AAGCTCGT belongs -0.158; to ACTGGAAA, -0.0455.
Take GGCCTGAC: the “PBM E-score” value is 0.0978.
As for ACATTAGG, the “PBM E-score” value is -0.236.
The same measure for ACGCCTCT: -0.283; for CGCCGATA: 0.17; for ACCGAAGC: -0.0758.
On to ATCGCGCG, for which the “PBM E-score” value was 0.275.
ACGAAGGC: the “PBM E-score” value is -0.144.
As for CGAGCCTC, the “PBM E-score” value is -0.00318.
The same measure for CCGCAGGA: 0.189.
As for ACAGAAGT, the “PBM E-score” value was -0.285.
As to ATCGATCA, the “PBM E-score” value was -0.0371.
Take TCACCTGA: the “PBM E-score” value was -0.145.
The same measure for GCCAGCCC: -0.12.
For the sequence CCATGGAC, the “PBM E-score” value worked out at 0.107.
To CCGTAAAC belongs 0.112; to AGGCGACC, 0.0795; to GATCATCA, -0.185.
On to ACGTGTTG, for which the “PBM E-score” value was -0.123.
Regarding CGTCCCAG, the “PBM E-score” value is -0.126.
For the sequence GTAGGCCA, the “PBM E-score” value is -0.118.
As for AGATGCTC, the “PBM E-score” value was 0.0282.
The same measure for CAGTGGCG: 0.0262; for CTCGCAGC: 0.0906; for CGACATAA: 0.00859.
To ACCGATGG belongs -0.0565; to AGCTATAC, -0.169; to GAAGTTGC, -0.205.
To CCCAACGA belongs -0.0918; to ACCTTAGT, -0.174.
Regarding GACGACTC, the “PBM E-score” value is -0.0464.
As for TAAGCAGA, the “PBM E-score” value is -0.00543.
With CCAACGCA, the “PBM E-score” value was -0.0458.
For the sequence AGTCGGCG, the “PBM E-score” value amounted to 0.125.
To GAAGTTTA belongs 0.0761; to ACTCGTGC, -0.0451; to GAGGGATC, -0.0055.
As to ATGGCTCA, the “PBM E-score” value is -0.247.
On to AATGTCCT, for which the “PBM E-score” value was -0.115.
Consider AGGTACTC, for which the “PBM E-score” value is -0.133.
On to ACCTGCGG, for which the “PBM E-score” value turned out to be 0.181.
For the sequence CGCATGCC, the “PBM E-score” value turned out to be 0.224.
To CACGATCA belongs -0.0924; to AGCTGAAA, 0.0997.
With AGGACTCA, the “PBM E-score” value is -0.298.
